# According to PubChem BioAssay AID686979 (National Center for Advancing Translational Sciences (NCATS), 2013):
# Values joined by “and” are separate entries in the source; they are usually repeats but may differ in a detail not shown here. Equal entries are not always repeated. The whole screen tested about 420,000 compounds, of which about 50,000 (12%) were called active. The shares of active, inactive and inconclusive entries below differ from those in the screen. Calls follow the shape of the dose curve; as a rule, active = well fitted inhibition curve with a large enough effect; inconclusive = small, poorly fitted or top-dose-only effect; inactive = flat fitted curve, though single readings scatter. Potencies of inconclusive entries are doubtful fits and often do not repeat.
# Assay: qHTS for Inhibitors of human tyrosyl-DNA phosphodiesterase 1 (TDP1): qHTS in cells in presence of CPT; also: nearly all actives have a fitted effect of over 55% in size
# Conditions: chicken DT40 Tdp1-/-;hTDP1 cells + 20 nM CPT, ATP luminescence, 48 h; activity change, negative = growth inhibition: at 46.2 µM (top of the series) unless noted
# How it was run: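 Chicken DT40 Tdp1-/- cells stably complemented with human TDP1 were seeded at 400 cells/well in medium containing 20 nM camptothecin, exposed to pin-transferred compounds, and grown at 37 °C for at least 48 hr. Viability was read as ATP luminescence.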
# % is scaled to controls: 0 for no effect and ±100 for the full control effect; potency is read from the fitted curve at half-maximal effect; tags tell the direction and shape of the fitted curve.
Structure (SMILES),Potency,"activity change, negative = growth inhibition"
O=C(CNC(=O)c1ccco1)N/N=C/c1ccc(O)cc1O,"inconclusive: 29.1 µM [inhibitor, single point]",–
N#Cc1c(-c2ccc(C(F)(F)F)cc2)cc(-c2ccccc2)[nH]c1=S,"inconclusive: 29.1 µM [inhibitor, single point]",–
CCN(C(=O)CSc1nnc(-c2cc(OC)c(OC)c(OC)c2)o1)c1ccccc1,active: 14.6 µM,–
CCC(C)Oc1ccc(C(=O)Nc2ccc(CN3CCOCC3)cc2)cc1 (stereo not given),active: 20.6 µM,–
COc1ccc(CNC(=O)COC(=O)c2ccc(C)c(S(=O)(=O)N3CCOCC3)c2)cc1,inactive,–
C/C(NCCc1ccc(O)cc1)=C1/CCOC1=O,inactive,–
CCN(CC(=O)Nc1ccc2c(c1)OCCO2)CC(=O)Nc1ccc(C)c([N+](=O)[O-])c1,"inconclusive: 29.1 µM [inhibitor, single point]",–
CC(OC(=O)c1cc2sccc2n1C)C(=O)NCC1CCCO1 (stereo not given),inactive,–
CCN(CC)C(=O)c1cccc(-c2csc(C(NC(C)=O)c3ccc(F)c(F)c3)n2)c1 (stereo not given),"inconclusive: 13 µM [inhibitor, partial curve]",–
CCOc1ccc(Cc2nnc(SCC(=O)Nc3ccccc3)n(N)c2=O)cc1,–,inconclusive: -27.4% [inhibitor]
CCOc1ccc(NC(=O)Cn2cc(C(=O)c3cccs3)c3ccccc32)cc1,"inconclusive: 18.4 µM [inhibitor, single point]",–
COc1ccccc1NC(=O)c1ccc(NC(=O)c2ccc(=O)[nH]c2)cc1,"inconclusive: 29.1 µM [inhibitor, single point]",–
Cn1c(=O)c(=O)n(C)c2cc([N+](=O)[O-])c(N3CCOCC3)cc21,inactive,–
C[C@@H]1CCCCO[C@H](CN(C)C(=O)Nc2cccc3ccccc23)[C@@H](C)CN([C@H](C)CO)C(=O)c2cc(NC(=O)c3ccccc3)ccc2O1,active: 4.61 µM,–
COc1cccc2sc(N3CCN(c4nc5ccccc5s4)CC3)nc12,–,inconclusive: -31.4% [inhibitor]
CCOc1cc(CNC(=O)c2ccccc2NC(=O)c2nsc3ccccc23)ccc1OC,active: 16.4 µM,–
CCN=C1NN=C(c2c[nH]c3ccccc23)CS1,inactive,–
Cc1ccc(C(=O)N(Cc2ccco2)Cc2ccco2)cc1,inactive,–
CCn1c(SCC(=O)Nc2nc(-c3ccc(C)cc3)cs2)nnc1-c1ccccc1,"inconclusive: 20.6 µM [inhibitor, single point]",–
C=C(C)C(=O)N1CC2(CC(c3cccc(NC(=O)CC(c4ccccc4)c4ccccc4)c3)=NO2)C[C@H]1C(N)=O (stereo not given in full),"inconclusive: 25.9 µM [inhibitor, single point]",–
CCc1nc2ccc(C(=O)NCCC(C)C)cn2c1N(CCN(C)C)CC1CC1,inactive,–
CCOC(=O)c1sc(NC(=O)c2ccc(C)s2)cc1C,"inconclusive: 35.5 µM [inhibitor, single point]",–
CSc1nnc(-c2cc3c(s2)-c2ccccc2CC3)o1,inactive,–
CCOC(=O)c1cc(NC(=O)OC)c(C)nc1C,"inconclusive: 6.51 µM [inhibitor, single point]",–

Structure (SMILES),Potency,"activity change, negative = growth inhibition"
CCc1ccc(NC(=O)C/C(C)=N/NC(=O)COc2ccc(C)cc2Br)cc1,inactive,–
CN1CCN(C(=O)/C=C/c2ccc(C#N)cc2)CC1,inactive,–
COc1ccc(CCCNC(=O)C2CCC(=O)N(Cc3ccc(Cl)cc3)C2)cc1 (stereo not given),"inconclusive: 20.6 µM [inhibitor, single point]",–
COc1ccc(-c2nc3ccc(Br)cn3c2Cc2ccc(C)cc2)cc1OC,"inconclusive: 29.1 µM [inhibitor, single point]",–
O=C(COc1ccccc1/C=C1\SC(=S)NC1=O)Nc1ccc(F)cc1,"inconclusive: 18.4 µM [inhibitor, single point]",–
CC(=O)Nc1ccc(S(=O)(=O)NC2=NCN(C)CN2)cc1,inactive,–
Nc1nc(COC(=O)c2ccc3c(c2)OCCO3)nc(Nc2ccccc2)n1,inactive,–
O=C(c1cc(C2CC2)nn1-c1ccccc1)N1CCN(S(=O)(=O)c2ccccc2)CC1,"inconclusive: 29.1 µM [inhibitor, single point]",–
Cc1cccc(NS(=O)(=O)c2ccc(C)c(C(=O)N3CCN(C(=O)c4ccco4)CC3)c2)c1,"inconclusive: 29.1 µM [inhibitor, single point]",–
O=C(CN1CCC(O)(c2ccccc2F)CC1)NCCc1c[nH]c2ccccc12,inactive,–
COc1cccc(-c2nnc(NC(=O)C3CCCCC3)o2)c1,inactive,–
O=c1[nH]c(CN(CCO)CCO)nc2c1C1(CCCCC1)Cc1ccccc1-2,–,inconclusive: -32.3% [inhibitor]
CCOc1ccc(C(=O)c2cn(CC(=O)Nc3ccc4c(c3)OCO4)c3ccc(OC)cc3c2=O)cc1,"inconclusive: 25.9 µM [inhibitor, single point]",–
CC(C)(C)C1CCC(=O)N(CCOc2ccccc2)CC1 (stereo not given),"inactive and inconclusive: 35.5 µM [inhibitor, single point]",–
CC1=C(C#N)C(C)C2=C(CC(C)(C)CC2=O)N1 (stereo not given),"inconclusive: 20.6 µM [inhibitor, single point]",–
COc1ccc(-n2c(Cc3cccn3C)nnc2SCC(=O)NC2CCCCC2)cc1,"inconclusive: 20.6 µM [inhibitor, partial curve, poor fit]",–
O=C(NCC(c1cccnc1)N1CCN(c2ccccc2F)CC1)C(=O)Nc1ccc(F)cc1F (stereo not given),"inconclusive: 23.1 µM [inhibitor, single point]",–
COc1cccc(N2CCN(C(=O)C3CCCN(S(=O)(=O)c4cccc5nsnc45)C3)CC2)c1 (stereo not given),active: 9.2 µM,–
COc1ccc(CNC(=O)CCc2nc(-c3ccccc3F)no2)c(OC)c1,inactive,–
OC1CCCN(Cc2ccc3ccc4cccc5ccc2c3c45)C1 (stereo not given),"inconclusive: 29.1 µM [inhibitor, single point]",–
CC(=O)Nc1ccc2c(c1)Cc1cc(N3C(=O)C=CC3=O)ccc1-2,active: 1.03 µM,–
CC(C)CN1CCN(Cc2cn(C)c3ccccc23)CC1CCO (stereo not given),"inconclusive: 25.9 µM [inhibitor, single point]",–
COc1cc(NC(=O)c2noc(C)c2[N+](=O)[O-])c(OC)cc1Cl,active: 14.6 µM,–
COc1cc(C(=O)OCC(=O)Nc2ccc(SC(F)F)cc2)cc(OC)c1OC,"inconclusive: 29.1 µM [inhibitor, single point]",–

Structure (SMILES),Potency,"activity change, negative = growth inhibition"
C#Cc1ccc([C@H]2C=C(C(=O)NC3CC3)O[C@@H](OCC)[C@@H]2CCCO)cc1,"inconclusive: 29.1 µM [inhibitor, single point]",–
COc1ccc(OC)c(NC(=O)Cn2c(=O)c3cccn3c3ccccc32)c1,"inconclusive: 16.4 µM [inhibitor, single point]",–
CC(C)(C)C(=O)COc1ccccc1[N+](=O)[O-],active: 14.6 µM,–
COc1ccc2cc3c(N)nn(C(=O)c4cccc(F)c4)c3nc2c1,"inconclusive: 6.51 µM [inhibitor, partial curve]",–
C=CC(=O)Nc1cccc(N(C)c2ccnc(Nc3ccc(N4CCN(C)CC4)cc3)n2)c1,"inconclusive: 9.2 µM [inhibitor, full curve, poor fit]",–
O=C(Nc1cccc(Cl)c1)C1CCCN(c2nn3cc(-c4ccc(F)cc4)nc3s2)C1 (stereo not given),"inconclusive: 25.9 µM [inhibitor, single point]",–
CCc1ccc2c(c1)C(c1ccc([N+](=O)[O-])cc1)=NNC(c1ccc(F)cc1)=N2,active: 20.6 µM,–
COc1ccc(C(=O)Nc2nc(-c3cccs3)cs2)cc1,"inconclusive: 29.1 µM [inhibitor, single point]",–
CCN(CC)S(=O)(=O)c1ccc(Oc2ccccc2)cc1,inactive,–
Cc1ccc(S(=O)(=O)c2cn(CC(=O)Nc3cccc(Cl)c3)c3ccccc3c2=O)cc1,"inconclusive: 29.1 µM [inhibitor, single point]",–
O=c1[nH]c2ccccc2cc1-c1nnn(-c2ccc(F)cc2)n1,–,inconclusive: -30.3% [inhibitor]
COc1ccc(/C=C2\COc3ccccc3C2=O)c(OC)c1,active: 20.6 µM,–
CCOC(=O)C1CCN(C(=O)c2nn(-c3ccc(OC)c(Cl)c3)c(=O)c3c2c2ccccc2n3C)CC1,active: 20.6 µM,–
Cc1ccc(Cl)cc1NC(=O)CSc1nc2ccccc2c2nc(-c3ccccc3)nn12,inactive,–
CCOc1ccc(NC(=O)CSc2nnc(-c3ccco3)n2N)cc1,inactive,–
CCOC(=O)c1ccc(NC(=O)c2nc[nH]c2C(=O)NCCCCNC(=O)c2[nH]cnc2C(=O)Nc2ccc(C(=O)OCC)cc2)cc1,"inconclusive: 2.31 µM [inhibitor, partial curve, poor fit]",–
CC(C)CC(=O)Nc1ccc2c(c1)oc1ccccc12,"inconclusive: 29.1 µM [inhibitor, single point]",–
COc1ccc(-n2c(Cc3cccn3C)nnc2SCC(=O)Nc2nccs2)cc1,"inconclusive: 16.4 µM [inhibitor, partial curve]",–
CC1(C)N=C(SCc2ccc(F)cc2)c2ccccc2N1,"inconclusive: 29.1 µM [inhibitor, single point]",–
NC(=O)c1ccc(SCC(=O)OCC(=O)NCc2ccco2)c([N+](=O)[O-])c1,inactive,–
COc1ccc(OC)c(C(=O)NC(CC(N)=O)c2ccc(NCCN3CCCC3)c([N+](=O)[O-])c2)c1 (stereo not given),"inconclusive: 16.4 µM [inhibitor, partial curve]",–
CCOP(=O)(OCC)C(C#N)=C1SCN(c2ccccc2)CS1,"inconclusive: 18.4 µM [inhibitor, single point]",–
